The list shows a part of the results.
Columns and labels:
Assay in all cases: glycan array binding signal (z-score within array); higher = stronger binding
Settings in all cases: glycan notation: IUPAC condensed, linker removed
[1] = molecular target: Fuc(a1-2)Gal(b1-4)GlcNAc(b1-3)Gal(b1-4)GlcNAc(b1-3)Gal(b1-4)GlcNAc
Method in brief: (§1)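 The Consortium for Functional Glycomics database supplied 3228 glycan arrays, of which those lacking an available protein sequence were dropped. The binding signal, a within-array Z-score, was averaged across arrays of the same protein sequence and across linkers. Negative scores can be read as non-binding.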

[2] = molecular target: Fuc(a1-2)Gal(b1-4)GlcNAc(b1-3)GalNAc
Method in brief: as §1

[3] = molecular target: Fuc(a1-2)Gal(b1-4)GlcNAc(b1-3)[Fuc(a1-2)Gal(b1-4)GlcNAc(b1-6)]GalNAc
Method in brief: as §1

[4] = molecular target: Fuc(a1-2)Gal(b1-4)GlcNAc(b1-3)[Fuc(a1-3)[Gal(b1-4)]GlcNAc(b1-6)]Gal(b1-4)Glc
Method in brief: as §1

[5] = molecular target: Fuc(a1-2)Gal(b1-4)GlcNAc(b1-6)GalNAc
Method in brief: as §1

[6] = molecular target: Fuc(a1-2)Gal(b1-4)GlcNAc6S
Method in brief: as §1

[7] = molecular target: Fuc(a1-2)Gal(b1-4)[Fuc(a1-3)]GlcNAc
Method in brief: as §1

[8] = molecular target: Fuc(a1-2)Gal(b1-4)[Fuc(a1-3)]GlcNAc(b1-2)Man(a1-3)[Fuc(a1-2)Gal(b1-4)[Fuc(a1-3)]GlcNAc(b1-2)Man(a1-6)]Man(b1-4)GlcNAc(b1-4)[Fuc(a1-6)]GlcNAc
Method in brief: as §1

[9] = molecular target: Fuc(a1-2)Gal(b1-4)[Fuc(a1-3)]GlcNAc(b1-2)[Fuc(a1-2)Gal(b1-4)[Fuc(a1-3)]GlcNAc(b1-4)]Man(a1-3)[Fuc(a1-2)Gal(b1-4)[Fuc(a1-3)]GlcNAc(b1-2)Man(a1-6)]Man(b1-4)GlcNAc(b1-4)GlcNAc
Method in brief: as §1

[10] = molecular target: Fuc(a1-2)Gal(b1-4)[Fuc(a1-3)]GlcNAc(b1-3)Gal(b1-4)[Fuc(a1-3)]GlcNAc
Method in brief: as §1

[11] = molecular target: Fuc(a1-2)Gal(b1-4)[Fuc(a1-3)]GlcNAc(b1-3)Gal(b1-4)[Fuc(a1-3)]GlcNAc(b1-3)Gal(b1-4)[Fuc(a1-3)]GlcNAc
Method in brief: as §1

[12] = molecular target: Fuc(a1-2)Gal(b1-4)[Fuc(a1-3)]GlcNAc(b1-3)GalNAc
Method in brief: as §1

[13] = molecular target: Fuc(a1-2)Gal(b1-4)[Fuc(a1-3)]GlcNAc(b1-3)[Neu5Ac(a2-6)Gal(b1-4)GlcNAc(b1-6)]Gal(b1-4)Glc
Method in brief: as §1

[14] = molecular target: Fuc(a1-2)Gal3S(b1-4)GlcNAc
Method in brief: as §1

[15] = molecular target: Fuc(a1-2)Gal6S(b1-3)GlcNAc
Method in brief: as §1

[16] = molecular target: Fuc(a1-2)Gal6S(b1-3)GlcNAc6S
Method in brief: as §1

Fuc(a1-2)Gal6S(b1-4)Glc = molecular target: Fuc(a1-2)Gal6S(b1-4)Glc
Method in brief: as §1

[17] = molecular target: Fuc(a1-2)Gal6S(b1-4)Glc6S
Method in brief: as §1

Fuc(a1-2)[Gal(a1-3)]Gal = molecular target: Fuc(a1-2)[Gal(a1-3)]Gal
Method in brief: as §1

[18] = molecular target: Fuc(a1-2)[Gal(a1-3)]Gal(b1-3)GalNAc
Method in brief: as §1

[19] = molecular target: Fuc(a1-2)[Gal(a1-3)]Gal(b1-3)GalNAc(b1-3)Gal(a1-4)Gal(b1-4)Glc
Method in brief: as §1

[20] = molecular target: Fuc(a1-2)[Gal(a1-3)]Gal(b1-3)GlcNAc
Method in brief: as §1

[21] = molecular target: Fuc(a1-2)[Gal(a1-3)]Gal(b1-3)GlcNAc(b1-2)Man(a1-3)[Fuc(a1-2)[Gal(a1-3)]Gal(b1-3)GlcNAc(b1-2)Man(a1-6)]Man(b1-4)GlcNAc(b1-4)GlcNAc
Method in brief: as §1

[22] = molecular target: Fuc(a1-2)[Gal(a1-3)]Gal(b1-3)GlcNAc(b1-2)Man(a1-3)[Fuc(a1-2)[Gal(a1-3)]Gal(b1-3)GlcNAc(b1-2)Man(a1-6)]Man(b1-4)GlcNAc(b1-4)[Fuc(a1-6)]GlcNAc
Method in brief: as §1

[23] = molecular target: Fuc(a1-2)[Gal(a1-3)]Gal(b1-3)GlcNAc(b1-3)GalNAc
Method in brief: as §1

[24] = molecular target: Fuc(a1-2)[Gal(a1-3)]Gal(b1-3)GlcNAc(b1-6)GalNAc
Method in brief: as §1

[25] = molecular target: Fuc(a1-2)[Gal(a1-3)]Gal(b1-4)Glc
Method in brief: as §1

[26] = molecular target: Fuc(a1-2)[Gal(a1-3)]Gal(b1-4)GlcNAc
Method in brief: as §1

[27] = molecular target: Fuc(a1-2)[Gal(a1-3)]Gal(b1-4)GlcNAc(b1-2)Man
Method in brief: as §1

[28] = molecular target: Fuc(a1-2)[Gal(a1-3)]Gal(b1-4)GlcNAc(b1-2)Man(a1-3)[Fuc(a1-2)[Gal(a1-3)]Gal(b1-4)GlcNAc(b1-2)Man(a1-6)]Man(b1-4)GlcNAc(b1-4)GlcNAc
Method in brief: as §1

[29] = molecular target: Fuc(a1-2)[Gal(a1-3)]Gal(b1-4)GlcNAc(b1-2)Man(a1-3)[Fuc(a1-2)[Gal(a1-3)]Gal(b1-4)GlcNAc(b1-2)Man(a1-6)]Man(b1-4)GlcNAc(b1-4)[Fuc(a1-6)]GlcNAc
Method in brief: as §1

[30] = molecular target: Fuc(a1-2)[Gal(a1-3)]Gal(b1-4)GlcNAc(b1-3)GalNAc
Method in brief: as §1

[31] = molecular target: Fuc(a1-2)[Gal(a1-3)]Gal(b1-4)GlcNAc(b1-3)[Fuc(a1-2)[Gal(a1-3)]Gal(b1-4)GlcNAc(b1-6)]GalNAc
Method in brief: as §1

[32] = molecular target: Fuc(a1-2)[Gal(a1-3)]Gal(b1-4)GlcNAc(b1-6)GalNAc
Method in brief: as §1

[33] = molecular target: Fuc(a1-2)[Gal(a1-3)]Gal(b1-4)[Fuc(a1-3)]Glc
Method in brief: as §1

[34] = molecular target: Fuc(a1-2)[Gal(a1-3)]Gal(b1-4)[Fuc(a1-3)]GlcNAc
Method in brief: as §1

[35] = molecular target: Fuc(a1-2)[Gal(a1-3)]Gal(b1-4)[Fuc(a1-3)]GlcNAc(b1-3)GalNAc
Method in brief: as §1

[36] = molecular target: Fuc(a1-2)[Gal(a1-4)]Gal(b1-4)GlcNAc
Method in brief: as §1

[37] = molecular target: Fuc(a1-2)[GalNAc(a1-3)]Gal
Method in brief: as §1

[38] = molecular target: Fuc(a1-2)[GalNAc(a1-3)]Gal(b1-3)GalNAc(a1-3)[Fuc(a1-2)]Gal(b1-4)GlcNAc
Method in brief: as §1

[39] = molecular target: Fuc(a1-2)[GalNAc(a1-3)]Gal(b1-3)GalNAc(b1-3)Gal(a1-4)Gal(b1-4)Glc
Method in brief: as §1

[40] = molecular target: Fuc(a1-2)[GalNAc(a1-3)]Gal(b1-3)GlcNAc
Method in brief: as §1

[41] = molecular target: Fuc(a1-2)[GalNAc(a1-3)]Gal(b1-3)GlcNAc(b1-2)Man(a1-3)[Fuc(a1-2)[GalNAc(a1-3)]Gal(b1-3)GlcNAc(b1-2)Man(a1-6)]Man(b1-4)GlcNAc(b1-4)GlcNAc
Method in brief: as §1

[42] = molecular target: Fuc(a1-2)[GalNAc(a1-3)]Gal(b1-3)GlcNAc(b1-2)Man(a1-3)[Fuc(a1-2)[GalNAc(a1-3)]Gal(b1-3)GlcNAc(b1-2)Man(a1-6)]Man(b1-4)GlcNAc(b1-4)[Fuc(a1-6)]GlcNAc
Method in brief: as §1

[43] = molecular target: Fuc(a1-2)[GalNAc(a1-3)]Gal(b1-3)GlcNAc(b1-3)GalNAc
Method in brief: as §1

B1: GS13846A-bth-444-19-444 (Bacteroides thetaiotaomicron) (protein)
chain: SCENEFDVSDKADSLISVTVNTLNNQAAYNVGETAQAELWIQRGGLKDASGKVQFVVDPLLLDSLNQEDKTNYELLPENCYEMTNTEFTVDKNELCGYITYHPEKILALSAYNETKYVLPLRLISNDLAINPARNTSFLAFTILEPIVHISNAGVYNINPDLTSTMDIQIGVPFTNKWDILCNLTEDLSLIDEYNQINKVNFTLLPENAYTAPESVTLQEGVSQITASYQLKNNLVPGNYILPIKIGSITASQGGVPNNSLVIDEESNVLFCIVKEGNKINKSGWEVIECSSEHAGNEATYMIDDNESTYWHCKFKNEAGSSVPPFHFIIDMKKEITIAQIDLLNRGDGAANNIKWVEFYASNNNSEWDKIGAGDFNDEGTRATFRYYVKSTKARYLKLIIPEGYGNNCPPAAIRELTVYGLEGNN
glycan array binding signal (z-score) [1]: -0.209 | glycan array binding signal (z-score) [2]: -0.202 | glycan array binding signal (z-score) [3]: -0.213 | glycan array binding signal (z-score) [4]: 0.069 | glycan array binding signal (z-score) [5]: -0.394 | glycan array binding signal (z-score) [6]: -0.349 | glycan array binding signal (z-score) [7]: -0.321 | glycan array binding signal (z-score) [8]: -0.105 | glycan array binding signal (z-score) [9]: -0.407 | glycan array binding signal (z-score) [10]: 0.013 | glycan array binding signal (z-score) [11]: -0.101 | glycan array binding signal (z-score) [12]: 2.24 | glycan array binding signal (z-score) [13]: -0.216 | glycan array binding signal (z-score) [14]: 0.574 | glycan array binding signal (z-score) [15]: -0.259 | glycan array binding signal (z-score) [16]: 0.009 | glycan array binding signal (z-score) (Fuc(a1-2)Gal6S(b1-4)Glc): -0.234 | glycan array binding signal (z-score) [17]: -0.431 | glycan array binding signal (z-score) (Fuc(a1-2)[Gal(a1-3)]Gal): -0.39 | glycan array binding signal (z-score) [18]: -0.119 | glycan array binding signal (z-score) [19]: -0.362 | glycan array binding signal (z-score) [20]: -0.41 | glycan array binding signal (z-score) [21]: -0.305 | glycan array binding signal (z-score) [22]: -0.256 | glycan array binding signal (z-score) [23]: -0.554 | glycan array binding signal (z-score) [24]: -0.104 | glycan array binding signal (z-score) [25]: -0.33 | glycan array binding signal (z-score) [26]: -0.11 | glycan array binding signal (z-score) [27]: -0.519 | glycan array binding signal (z-score) [28]: -0.034 | glycan array binding signal (z-score) [29]: 0.056 | glycan array binding signal (z-score) [30]: -0.247 | glycan array binding signal (z-score) [31]: -0.093 | glycan array binding signal (z-score) [32]: -0.488 | glycan array binding signal (z-score) [33]: 0.113 | glycan array binding signal (z-score) [34]: -0.427 | glycan array binding signal (z-score) [35]: -0.166 | glycan array binding signal (z-score) [36]: -0.138 | glycan array binding signal (z-score) [37]: -0.112 | glycan array binding signal (z-score) [38]: -0.106 | glycan array binding signal (z-score) [39]: -0.269 | glycan array binding signal (z-score) [40]: -0.002 | glycan array binding signal (z-score) [41]: -0.289 | glycan array binding signal (z-score) [42]: 0.032 | glycan array binding signal (z-score) [43]: -0.33

Reference: the supplement of paper PMC8728848
